Measured values: PubChem BioAssay AID900 (National Center for Advancing Translational Sciences (NCATS), 2007)
In all, about 75,000 compounds went through this assay and about 20 (0.03%) were called active. This list was built around the results that the source calls inconclusive (neither active nor inactive); the mix of calls is not that of the screen. Calls come from the whole dose curve; as a rule, active = well fitted inhibition curve with a large enough effect; inconclusive = small, poorly fitted or top-dose-only effect; inactive = flat fitted curve, though single readings scatter. Where the call is inconclusive, the potency comes from a doubtful curve fit.

target: Caspase-1 (Homo sapiens) (UniProt P29466); assay: qHTS Assay for Allosteric/Competitive Inhibitors of Caspase-1; settings: Caspase-1 enzyme, Ac-WEHD-AFC fluorogenic rate; activity change, negative = inhibition: at 57.5 µM (top of the series) unless noted;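 for activity change, negative = inhibition: plate controls were vehicle for no effect and no substrate for full effect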
Potency is the fitted concentration of half-maximal effect; tags give direction and shape of the fitted curve or compound fluorescence and quenching.

**Q.** Which Potency does the source give for `O=c1[nH]c2c(s1)C(c1ccco1)C1C3CCC(C3)C1S2` (centres undefined) here?
**A.** inconclusive: 25.1 µM [inhibitor, partial curve]

**Q.** `O=C(c1cc(-c2ccc3c(c2)OCO3)on1)N1CCN(c2ccc(F)cc2)CC1` was tested. Which Potency did it give?
**A.** inactive

**Q.** `N#CC1=C(N)Oc2cc(O)ccc2C1c1cccs1` (centres undefined) was tested. Which Potency did it give?
**A.** inconclusive: 25.1 µM [inhibitor, partial curve]

**Q.** Which Potency does the source give for `c1ccc(CCc2nc(-c3ccccn3)no2)cc1` here?
**A.** inactive

**Q.** `COc1ccc(N2CCN(Cc3nc(N)nc(Nc4ccc(C)c(Cl)c4)n3)CC2)cc1` was tested. Which Potency did it give?
**A.** inactive

**Q.** Which Potency does the source give for `OCCN1CCN(C(c2cccs2)c2ccc3cccnc3c2O)CC1` (centres undefined) here?
**A.** inactive

**Q.** How did the Potency turn out when `Cc1cc(Nc2nc3ccccc3[nH]c2=O)n(-c2ccccc2)n1` was run?
**A.** inactive

**Q.** With `Cc1cccc(-n2c(SCC(=O)NCc3ccco3)nc3ccccc3c2=O)c1` as the compound, how does the Potency read?
**A.** inactive

**Q.** How did the Potency turn out when `Cc1ccnc(NC(=O)C2CCN(S(=O)(=O)c3cccc4nsnc34)CC2)c1` was run?
**A.** inactive

**Q.** `COC(=O)C1=C(C)N(Cc2ccccc2)C2=C(C(=O)c3ccccc3)C(c3ccccc3)[C@@](O)(C(=O)OC)C(=O)N2C1c1ccccc1` (some centres undefined) was tested. Which activity change, negative = inhibition did it give?
**A.** inconclusive: -19.2% [inhibitor] [at 11.5 µM]

**Q.** `O=C(CSc1nc2nc(-c3cccs3)cc(C(F)(F)F)c2c(=O)[nH]1)NCc1ccco1` was tested. Which Potency did it give?
**A.** inconclusive: 25.1 µM [inhibitor, partial curve]

**Q.** Which Potency does the source give for `CN(C)c1ncc2nc(CCc3ccccc3)c(=O)n(C3CC3)c2n1` here?
**A.** inconclusive: 15.8 µM [inhibitor, partial curve]

**Q.** With `CCOc1ccccc1N(C(=O)c1snc(C(N)=O)c1N)C(C(=O)NCCC(C)C)c1ccco1` (centres undefined) as the compound, how does the Potency read?
**A.** inconclusive: 39.8 µM [inhibitor, single point]

**Q.** For `CC(C)CN1C(=O)NC(NC(=O)c2ccco2)(C(F)(F)F)C1=O` (centres undefined), which Potency is on record?
**A.** inconclusive: 39.8 µM [inhibitor, single point]

**Q.** `COCC(=O)Nc1cccc(Br)c1` was tested. Which Potency did it give?
**A.** inactive

**Q.** With `Cc1ccsc1C=Nc1ccc(O)cc1` as the compound, how does the Potency read?
**A.** inconclusive: 25.1 µM [inhibitor, partial curve]

**Q.** `N=C1N=C(N)c2cc3ccccc3cc21` was tested. Which Potency did it give?
**A.** inconclusive: 31.6 µM [inhibitor, partial curve]

**Q.** Which Potency does the source give for `c1ccc2c(c1)NC1(CCCCC1)n1c-2nc2ccccc21` here?
**A.** inconclusive: 20 µM [inhibitor, partial curve]

**Q.** `Cc1cc2nc(-c3cccnc3SCC(=O)NCc3ccco3)[nH]c2cc1C` was tested. Which Potency did it give?
**A.** inconclusive: 31.6 µM [inhibitor, partial curve]

**Q.** For `CCCn1nc(NC(=O)c2ccncc2)c2cc3ccccc3nc21`, which Potency is on record?
**A.** inconclusive: 20 µM [inhibitor, partial curve]

**Q.** How did the Potency turn out when `CC1CCCCC1NC(=O)Cn1c(CN2CCCCC2)nc2ccccc2c1=O` (centres undefined) was run?
**A.** inactive

**Q.** `Cc1cccc(-n2c(O)c(C=Nc3c(C)n(C)n(-c4ccccc4)c3=O)c3ccccc3c2=O)n1` was tested. Which Potency did it give?
**A.** inconclusive: 12.6 µM [inhibitor, partial curve]

**Q.** Which Potency does the source give for `CCc1cc2c(=O)c(-n3cnc4ccccc43)coc2cc1O` here?
**A.** inconclusive: 25.1 µM [inhibitor, partial curve]

**Q.** For `O=C(CSc1nnc(-c2cccs2)n1CC1CCCO1)c1cc2ccccc2o1` (centres undefined), which Potency is on record?
**A.** inactive

**Q.** Which Potency does the source give for `COc1cccc(-c2nccc(NCc3ccc(OC)cc3OC)n2)c1` here?
**A.** inactive

**Q.** `CCOC(=O)c1cc(=O)n2[nH]c(-c3ccc(C)cc3)cc2n1` was tested. Which Potency did it give?
**A.** inconclusive: 7.94 µM [inhibitor, full curve]

**Q.** How did the Potency turn out when `COc1ncc2nc(-c3ccccc3)c(=O)n(Cc3cccs3)c2n1` was run?
**A.** inconclusive: 31.6 µM [inhibitor, single point]

**Q.** Which Potency does the source give for `Cc1ccccc1Cn1nc(C)c(NC(=O)c2cc3nc(-c4ccco4)cc(C(F)(F)F)n3n2)c1C` here?
**A.** inconclusive: 20 µM [inhibitor, partial curve]

**Q.** Which Potency does the source give for `O=C(NCc1ccccc1)[C@@H]1C[C@H]1[C@@H](NP(=O)(c1ccccc1)c1ccccc1)c1ccccc1` here?
**A.** inactive

**Q.** How did the Potency turn out when `CCC1SC(=NC(=O)c2ccc(Cl)c(Cl)c2)NC1=O` (centres undefined) was run?
**A.** inactive

**Q.** With `Cc1ncc2c(c1O)COP(=O)(O)OC2` as the compound, how does the Potency read?
**A.** inactive

**Q.** Which Potency does the source give for `O=C1OCCC1Sc1nnc(-c2ccc(Br)cc2)o1` (centres undefined) here?
**A.** inactive

**Q.** Which Potency does the source give for `COC(=O)N1CCC2(CC1)CN(C(=O)Nc1ccccc1)C2` here?
**A.** inactive

**Q.** With `CC1(C)C(=O)NC2=C1C(=O)C(=O)c1ccccc12` as the compound, how does the Potency read?
**A.** inconclusive: 12.6 µM [inhibitor, partial curve]

**Q.** For `COCCCn1c(=N)c(C(=O)NCc2ccc3c(c2)OCO3)cc2c(=O)n3cccc(C)c3nc21`, which Potency is on record?
**A.** inconclusive: 25.1 µM [inhibitor, partial curve]

**Q.** `COCCNC(=O)CSc1nc2ccc(N3CCOCC3)cc2c(=O)n1CCc1ccccc1` was tested. Which Potency did it give?
**A.** inconclusive: 25.1 µM [inhibitor, partial curve]

**Q.** How did the Potency turn out when `Cc1ccc(NS(=O)(=O)c2cc(C(=O)O)ccc2Cl)cc1C` was run?
**A.** inactive

**Q.** With `O=C1C2C3C=CC(C3)C2C(=O)N1c1ccccc1` (centres undefined) as the compound, how does the Potency read?
**A.** inactive

**Q.** How did the Potency turn out when `COc1ccc(F)cc1S(=O)(=O)Nc1ccccc1C(=O)O` was run?
**A.** inactive

**Q.** Which Potency does the source give for `CN(C)c1ccc(-c2nnc(-c3ccc(S(=O)(=O)C(F)F)cc3)o2)cc1` here?
**A.** inconclusive: 3.16 µM [inhibitor, full curve]

**Q.** With `N#CCSc1nc(Nc2ccc3c(c2)OCO3)c2ccccc2n1` as the compound, how does the Potency read?
**A.** inconclusive: 31.6 µM [inhibitor, single point]

**Q.** Which Potency does the source give for `CCC(C)(C)n1nnnc1C(c1cc2cc(C)cc(C)c2[nH]c1=O)N1CCCC1` (centres undefined) here?
**A.** inconclusive: 25.1 µM [inhibitor, partial curve]

**Q.** For `CC(C)(O)c1cc(=O)sc2nc3ccccc3n12`, which Potency is on record?
**A.** inactive

**Q.** `O=C1OC2(c3cc(Br)c(O)c(Br)c3Oc3c2cc(Br)c(O)c3Br)c2c(Cl)c(Cl)c(Cl)c(Cl)c21` was tested. Which Potency did it give?
**A.** inconclusive: 39.8 µM [inhibitor, partial curve]

**Q.** Which Potency does the source give for `N#CC1=C(N)SC(N)=C(C#N)C1c1ccnc2ccccc12` here?
**A.** inconclusive: 25.1 µM [inhibitor, partial curve]

**Q.** `CCOC(=O)c1[nH]c(COC(=O)CCCOc2ccccc2)c(C(=O)OCC)c1C` was tested. Which Potency did it give?
**A.** inconclusive: 15.8 µM [inhibitor, partial curve]

**Q.** For `COc1cc2c(cc1OC)CN(CC(=O)NC(=O)NCc1ccco1)CC2`, which Potency is on record?
**A.** inconclusive: 31.6 µM [inhibitor, single point]

**Q.** `CCOC(=O)c1sc(-c2ccc(OC)cc2)cc1N` was tested. Which Potency did it give?
**A.** inactive

**Q.** Which Potency does the source give for `CCc1ccc(NC(=O)C2CC(=O)N=C(N)S2)cc1` (centres undefined) here?
**A.** inactive

**Q.** How did the Potency turn out when `COc1ccc(-n2c(=O)c(-c3ccc(F)cc3)nc3cnc(N4CCNCC4)nc32)cc1` was run?
**A.** inconclusive: 15.8 µM [inhibitor, partial curve]

**Q.** How did the Potency turn out when `c1ccc(CSc2nnc3c(n2)OC(c2ccco2)Nc2ccccc2-3)cc1` (centres undefined) was run?
**A.** inactive

**Q.** How did the Potency turn out when `CN(C)c1nc(OCCOC(=O)c2ccccc2)nc(N(C)C)n1` was run?
**A.** inactive

**Q.** Which Potency does the source give for `CCOCCCn1c(=N)c(C(=O)NCc2ccc3c(c2)OCO3)cc2c(=O)n3ccccc3nc21` here?
**A.** inconclusive: 15.8 µM [inhibitor, partial curve]

**Q.** Which Potency does the source give for `COc1ccc(Oc2ncc3nc(-c4ccc(F)cc4)c(=O)n(C[C@H]4CCCO4)c3n2)cc1` here?
**A.** inconclusive: 31.6 µM [inhibitor, single point]

**Q.** With `CCOC(=O)C(NC(=O)c1ccc(OC)cc1)(Nc1cc(C)on1)C(F)(F)F` (centres undefined) as the compound, how does the Potency read?
**A.** inactive

**Q.** How did the Potency turn out when `COc1ccc2c(c1)C(=O)N(c1ccccc1OC)C(=O)C2` was run?
**A.** inconclusive: 25.1 µM [inhibitor, partial curve]

**Q.** `O=C(CN1CCOCC1)Nc1cc(Cl)ccc1Cl` was tested. Which Potency did it give?
**A.** inactive

**Q.** With `O=C(O)C[C@H](Sc1ccccc1)c1ccccc1` as the compound, how does the activity change, negative = inhibition read?
**A.** inactive: -0.435% [at 11.5 µM]

**Q.** How did the activity change, negative = inhibition turn out when `CCOC(=O)c1ccc(N=C2NC(=O)CS2)cc1` was run?
**A.** inconclusive: -16.1% [inhibitor]

**Q.** Which Potency does the source give for `CCNC(=O)[C@@H]1O[C@@H](n2cnc3c(N)nc(NCCc4ccc(CCC(=O)O)cc4)nc32)[C@H](O)[C@@H]1O` here?
**A.** inactive

**Q.** For `Cc1cc(C(=O)CSc2nc3ccc(Cl)cc3[nH]2)c(C)n1C`, which activity change, negative = inhibition is on record?
**A.** inconclusive: -15.2% [inhibitor]

**Q.** For `N[C@@H](Cc1ncccn1)C(=O)O`, which activity change, negative = inhibition is on record?
**A.** inactive: 1.08% [at 11.5 µM]

**Q.** `O=C(COC(=O)c1ccccc1Nc1ccccc1)NCc1ccco1` was tested. Which Potency did it give?
**A.** inconclusive: 31.6 µM [inhibitor, partial curve]

**Q.** For `O=c1c2ccccc2c(/C=N/c2ncn[nH]2)c(O)n1Cc1ccccc1`, which Potency is on record?
**A.** inconclusive: 31.6 µM [inhibitor, partial curve]

**Q.** For `CN(C)c1ccc(C(=O)OCC(=O)Nc2ccc(S(N)(=O)=O)cc2)cc1`, which activity change, negative = inhibition is on record?
**A.** inconclusive: -17.3% [inhibitor]

**Q.** Which Potency does the source give for `O=c1[nH]c2ccccc2c2nc3ccccn3c12` here?
**A.** inactive

**Q.** With `N#CCCn1c(=O)cnc2cnc(N3CCOCC3)nc21` as the compound, how does the Potency read?
**A.** inconclusive: 15.8 µM [inhibitor, partial curve]

**Q.** For `CC(=O)Nc1cc(CN2CCCCC2)c(O)c2ncccc12`, which activity change, negative = inhibition is on record?
**A.** inactive: -0.989% [at 11.5 µM]

**Q.** How did the Potency turn out when `Cc1ccc(-c2cc(-c3ccc4c(c3)OCO4)c(C#N)c(N)n2)o1` was run?
**A.** inconclusive: 31.6 µM [inhibitor, partial curve]

**Q.** Which Potency does the source give for `CCC(C)(C)n1nnnc1C(c1cc2ccc(OC)cc2[nH]c1=O)N1CCc2ccccc21` (centres undefined) here?
**A.** inconclusive: 25.1 µM [inhibitor, partial curve]

**Q.** `Cc1cc(C)n(C(=O)COc2c(C)cccc2C)n1` was tested. Which Potency did it give?
**A.** inconclusive: 25.1 µM [inhibitor, partial curve]

**Q.** `Cn1c(N)c(C(=O)COC(=O)c2cc(-c3ccco3)nc3ccccc23)c(=O)n(C)c1=O` was tested. Which Potency did it give?
**A.** inconclusive: 20 µM [inhibitor, partial curve]

**Q.** For `CCOc1ccc(C(C)=O)cc1N1C(=O)C2C3C=CC(C3)C2C1=O` (centres undefined), which Potency is on record?
**A.** inactive

**Q.** `O=C(Nc1ccc2nsnc2c1)c1cccs1` was tested. Which Potency did it give?
**A.** inconclusive: 31.6 µM [inhibitor, single point]
